Data from the supplement of paper PMC4967469.

Experiments:
Experiment in all cases: Viability of human cancer cell lines after 72 h of drug (GDSC screen)
[1] = compound: CC[C@]1(O)C[C@@H]2CN(CCc3c([nH]c4ccccc34)[C@@](C(=O)OC)(c3cc4c(cc3OC)N(C)[C@H]3[C@@](O)(C(=O)OC)[C@H](OC(C)=O)[C@]5(CC)C=CCN6CC[C@]43[C@@H]65)C2)C1 [Vinblastine]; conditions: top dose 0.1 µM; top dose inferred
Procedure: (§1)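 Human cancer cell lines in 384-well plates, medium with 10% serum, drug for 72 h over a 256-fold dose range (nine 2-fold or five 4-fold steps up to the top dose). Adherent lines were fixed and stained with the nucleic acid dye Syto60, suspension lines read with resazurin; signal relative to control wells, capped at 0 and 100%. One two-parameter sigmoid per drug and line, fitted in a mixed model over all curves with the slope shared within a line.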

[2] = compound: CN(C)C/C=C/C(=O)Nc1cc2c(Nc3ccc(F)c(Cl)c3)ncnc2cc1O[C@H]1CCOC1 [Afatinib]
Procedure: as §1

[3] = compound: CN(c1ncccc1CNc1nc(Nc2ccc3c(c2)CC(=O)N3)ncc1C(F)(F)F)S(C)(=O)=O [PF-562271]; conditions: top dose 2.56 µM; top dose inferred
Procedure: as §1

[4] = compound: O=C(NC1CC1)c1cccc(-c2ccc3c(NC(=O)C4CC4)n[nH]c3c2)c1 [XMD13-2]; conditions: top dose 10.24 µM; top dose inferred
Procedure: as §1

[5] = compound: CC1(C)CC(=O)c2c(C(F)(F)F)nn(-c3ccc(C(N)=O)c(N[C@H]4CC[C@H](O)CC4)c3)c2C1 [SNX-2112]; conditions: top dose 2.56 µM
Procedure: as §1

[6] = top dose 0.5 µM, screen: GDSC drug entry 1032
[7] = top dose 10 µM, screen: GDSC drug entry 1377, top dose inferred

Cell Line | AUC [1] | IC50 [1] | AUC [2, 6] | IC50 [2, 6] | AUC [2, 7] | IC50 [2, 7] | AUC [3] | IC50 [3] | AUC [4] | IC50 [4] | AUC [5] | IC50 [5]
8505C (thyroid, adherent) | 0.415 | 3.6 nM | 0.982 | > 500 nM | 0.983 | > 10000 nM | 0.89 | > 2560 nM | 0.919 | > 10.2 µM |  | 
23132-87 (stomach, adherent) | 0.58 | 10.4 nM | 0.982 | > 500 nM | 0.975 | > 10000 nM | 0.911 | > 2560 nM | 0.945 | > 10.2 µM |  | 
A431 (skin, adherent) | 0.555 | 8.76 nM |  |  |  |  | 0.844 | 1720 nM | 0.887 | > 10.2 µM | 0.338 | 57.8 nM
Becker (glioma, adherent) | 0.33 | 1.96 nM | 0.967 | > 500 nM | 0.967 | > 10000 nM | 0.87 | > 2560 nM | 0.877 | > 10.2 µM |  | 
C32 (melanoma, adherent) | 0.734 | 30.7 nM |  |  |  |  | 0.986 | > 2560 nM | 0.986 | > 10.2 µM | 0.41 | 89.4 nM
CCF-STTG1 (glioma, adherent) | 0.702 | 23.3 nM | 0.985 | > 500 nM | 0.987 | > 10000 nM | 0.923 | > 2560 nM | 0.955 | > 10.2 µM |  | 
CFPAC-1 (pancreas, adherent) | 0.82 | 68.5 nM | 0.901 | > 500 nM | 0.823 | 7060 nM | 0.888 | > 2560 nM | 0.967 | > 10.2 µM |  | 
CW-2 (large intestine, adherent) | 0.822 | 64 nM |  |  |  |  | 0.989 | > 2560 nM | 0.963 | > 10.2 µM | 0.773 | 1070 nM
DEL (lymphoid neoplasm, suspension) | 0.224 | 1.23 nM |  |  |  |  | 0.911 | 2270 nM | 0.592 | 1.08 µM | 0.497 | 158 nM
DOHH-2 (B-cell lymphoma, suspension) | 0.332 | 2.16 nM | 0.981 | > 500 nM |  |  | 0.95 | > 2560 nM |  |  |  | 
DU-145 (prostate, adherent) | 0.863 | > 100 nM |  |  |  |  | 0.831 | 1880 nM | 0.979 | > 10.2 µM | 0.666 | 492 nM
EHEB (lymphoid neoplasm, suspension) | 0.755 | 49 nM | 0.974 | > 500 nM | 0.969 | > 10000 nM | 0.966 | > 2560 nM |  |  |  | 
EPLC-272H (lung squamous cell carcinoma, adherent) | 0.59 | 11.4 nM |  |  |  |  | 0.933 | > 2560 nM | 0.833 | 7.8 µM | 0.377 | 70.2 nM
GAK (melanoma, adherent) | 0.904 | > 100 nM |  |  |  |  | 0.982 | > 2560 nM | 0.985 | > 10.2 µM | 0.841 | 1660 nM
H290 (mesothelioma, adherent) | 0.574 | 9.8 nM | 0.9 | > 500 nM | 0.719 | 2440 nM | 0.947 | > 2560 nM | 0.989 | > 10.2 µM |  | 
H3255 (lung adenocarcinoma, adherent) | 0.682 | 22.4 nM |  |  |  |  | 0.928 | > 2560 nM | 0.959 | > 10.2 µM | 0.911 | > 2560 nM
HARA (lung squamous cell carcinoma, adherent) | 0.446 | 4.34 nM |  |  |  |  | 0.907 | > 2560 nM | 0.898 | > 10.2 µM | 0.49 | 149 nM
HCC-15 (lung squamous cell carcinoma, adherent) | 0.54 | 8.27 nM |  |  |  |  | 0.928 | > 2560 nM | 0.96 | > 10.2 µM | 0.887 | > 2560 nM
HSC-4 (head and neck, adherent) | 0.39 | 2.82 nM |  |  |  |  | 0.885 | > 2560 nM | 0.957 | > 10.2 µM | 0.794 | 1640 nM
HT-1197 (bladder, adherent) | 0.908 | > 100 nM |  |  |  |  | 0.976 | > 2560 nM | 0.985 | > 10.2 µM | 0.935 | > 2560 nM
IM-9 (myeloma, suspension) | 0.752 | 29.3 nM | 0.99 | > 500 nM | 0.991 | > 10000 nM | 0.991 | > 2560 nM |  |  |  | 
IST-SL2 (small cell lung carcinoma, suspension) | 0.744 | 30.9 nM | 0.973 | > 500 nM | 0.973 | > 10000 nM | 0.962 | > 2560 nM | 0.7 | 2.32 µM |  | 
JHU-029 (head and neck, adherent) | 0.368 | 2.47 nM | 0.6 | 62.7 nM | 0.318 | 171 nM | 0.914 | > 2560 nM |  |  |  | 
K5 (thyroid, adherent) | 0.468 | 5.13 nM | 0.904 | > 500 nM | 0.958 | > 10000 nM | 0.943 | > 2560 nM | 0.962 | > 10.2 µM |  | 
KARPAS-231 (B-cell leukaemia, suspension) | 0.296 | 1.96 nM | 0.874 | 305 nM | 0.994 | > 10000 nM | 0.958 | > 2560 nM | 0.52 | 0.716 µM |  | 
KASUMI-1 (acute myeloid leukaemia, suspension) | 0.645 | 15.7 nM | 0.957 | > 500 nM | 0.903 | > 10000 nM | 0.867 |  | 0.881 | > 10.2 µM |  | 
KP-1N (pancreas, adherent) | 0.583 | 10.7 nM | 0.986 | > 500 nM | 0.966 | > 10000 nM | 0.889 | > 2560 nM |  |  |  | 
LB647-SCLC (small cell lung carcinoma, semi-adherent) | 0.699 | 24.3 nM | 0.985 | > 500 nM | 0.982 | > 10000 nM | 0.973 | > 2560 nM |  |  |  | 

By IC50 is meant the dose at which the fit gives 50% viability; where the fit passes the top or lowest dose, that dose stands as a limit. For AUC the same curve is integrated over the 256-fold range of doses and scaled to a fraction; it is 1 without any effect and falls as sensitivity rises. For some of these results: Where the top dose is marked as inferred, it was derived from the fitted curves, not read from the paper. For some of these results: An entry number marks a drug with two screens in the source, which often give different values.
